Laboratory results from the RNAGym collection of RNA variant scans (doi:10.1073/pnas.2313332121).
This sample is rich in variants without activity.

B1: TPR 5TU (parent)
chain: GGAUCUUCUCGAUCUAACAAAAAAGACAAAUCUGCCACAAAGCUUGAGAGCAUCUUCGGAUGCAGAGGCGGCAGCCUUCGGUGGCGCGAUAGCGCCAACGUUCUCAACUAUGACACGCAAAACGCGUGCUCCGUUGAAUGGAGUUUAUCAUG

Variants of: B1
Assay: polymerase ribozyme fitness, log enrichment relative to wild type (log ratio); higher = more active; in vitro selection for triplet polymerase activity
Method in brief: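 A heterodimeric triplet polymerase ribozyme had each of its subunits mutagenized by PCR into a library, which was transcribed. One round of in vitro selection, done in triplicate, annealed each library with a biotinylated primer, its partner subunit and triplets, then incubated it frozen at −7 °C before gel excision of extended constructs, streptavidin-bead capture and RT-PCR. Fitness is the logarithm of genotype enrichment relative to wild-type enrichment, based on Illumina sequencing of inputs and outputs and inverse-variance-weighted replicate averages. A base-2 logarithm is used, and genotypes were kept only with ≥10 input reads and ≥1 read per output.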

Variant | polymerase ribozyme fitness (log ratio)
U9C C108A | ≤ -4.2
U9G A29G A60U C76A C87A G100A G124C U127A G140C C149U | ≤ -4.2
C8U C14G C51U C75U U90G C96A A97G U148C | ≤ -4.2
U9A A73U C85U C95A A115U C118U | ≤ -4.2
U9A A23U C32G C54G G92U U101C G140U | ≤ -4.2
U9A U44A U45A C72U C79G G86U U102C U144C U148G | ≤ -4.2
C8U G59A U90C C93U U135C A142C | ≤ -4.2
U9A G11A C14U A28U G46U | ≤ -4.2
C8U C14G U33G C51G C54U C57A U77G C87G G136U | ≤ -4.2
U9G C51G G86A | ≤ -4.2
C8U G71A | ≤ -4.2
C8U C32G C35U G48U A73C G81A G92U | ≤ -4.2
U9G C10G A17G A22G A23U G50A A73G | ≤ -4.2
U9C A37G C87U U135C G136U | ≤ -4.2
U9C C85U | -3.24
U9G C69A U102C | ≤ -4.2
C8U U9G C10U A30C A49C C57A C99U A120U G143U U148G | ≤ -4.2
U9A A23C A64U C79G G88U U130A A147C | ≤ -4.2
U9A C27G U44A U55A C87A C105G | ≤ -4.2
C8U C43U C85A U101G C118A | ≤ -4.2
U9A G42C C54G C69A C76A C79G C87A A91U A98U | ≤ -4.2

Variant | polymerase ribozyme fitness (log ratio)
U9C A16G C35A G42A C99U | ≤ -4.2
C8U C87G G92A A107C | ≤ -4.2
C8U C69U C76G C93G U144A | ≤ -4.2
C8U C87A U127A G141C | ≤ -4.2
U9G C63U A66C G100A | ≤ -4.2
C8U C32A C85U | ≤ -4.2
U9G A26C A30G G83C C93U A107U | ≤ -4.2
U9G A17G A41G U53A U77G G84U C116A G141A A147G | ≤ -4.2
U9G A40U G88C G133U G136A G141A | ≤ -4.2
U9C G42C G74C G133C U144C | ≤ -4.2
U9G C32A U102C U134A A137C | ≤ -4.2
C8U C38A C75G C85G | ≤ -4.2
U9G C87G C93U C125A | ≤ -4.2
U9C A41G A60U A66U G100C | ≤ -4.2
U9A A17G C32G C85U C116U A120C | ≤ -4.2
C8U C10G A29U C85U C116U | ≤ -4.2
U9G A17U C27G G50U U56G C87U A107C | ≤ -4.2
C8U C96U | -2.69
U9A U31G U55A G84A G94C C99U | ≤ -4.2
U9C C10G C35U G94A C103A C108U A115U G140U | ≤ -4.2
U9A C57A C87U C93U C105U A119G A147G | ≤ -4.2

Variant | polymerase ribozyme fitness (log ratio)
C8U A49U C85A G141C | ≤ -4.2
U9G C18G A30U C35G C87G A147G | ≤ -4.2
C8U G84U | -4.13
U9G C14U C36U C76A A97U | ≤ -4.2
U9A A24U A121U A122U G141A | ≤ -4.2
C8U C57U C75U G86A C99G U135G | ≤ -4.2
U9G C87A U90A G136A | ≤ -4.2
C8U G25C U82A C87A | ≤ -4.2
U9A A23C C32U C72G G80A G81A | ≤ -4.2
U9G A28C C36A A97G C116A A119U | ≤ -4.2
U9A A41C G86U U139A U144C | ≤ -4.2
U9C A24U A41G C75U G83A G84A C93A | ≤ -4.2
C8U U61G C76A G88A C96U | ≤ -4.2
U9C G11A C27G U55G A66G U78G U82A | ≤ -4.2
C8U C14G C18G G34A C93G G94U G126A | ≤ -4.2
U9A C14U A29U A66C C72A U78G G81A C96G A107C C125A | ≤ -4.2
C8U G50C A73G U77C G92U A107U | ≤ -4.2
U9A A91C C116G U148A | -3.93
U9C A22U G50C C85G C87G A98G G141C | ≤ -4.2
U9G A16C A30C G34A G58U C93G C105A A110G C118U C149U | -4.17
U9C C43G G65A G67C C95A | -4.09

Variant | polymerase ribozyme fitness (log ratio)
U9G A17C A37C G42C U55A C75G G83A C105U G141C | ≤ -4.2
U9G C36G G83A A106G G143A | ≤ -4.2
U9G A16G C43G G59U A89C A142C | ≤ -4.2
U9A A17U G58A U151A | ≤ -4.2
U9G A19U C85A A137U | ≤ -4.2
U9C A21C C76A G94A C103A U144G | ≤ -4.2
C8U A47U C79A C85U C93G G100A C118U C131U | ≤ -4.2
U9G A17G G58A G65A C93U G133A | ≤ -4.2
C8U C35U C57G A147G | ≤ -4.2
U9A A73G G84U C114G C116G G143A | ≤ -4.2
C8U C36A G42C G50C C87U G133C | ≤ -4.2
U9G A30U U55G G62A G92A G100U G117C U148G | ≤ -4.2
U9C A23U C35A G50C C79G U134G | ≤ -4.2
U9C A16U U56A C76A C85A A91U C99G A119G | ≤ -4.2
C8U G11C C76U G88U G94C A97C U135A G140A | ≤ -4.2
C8U C14G G50C A106U A110G | ≤ -4.2
U9A U56A C95U A98U G141C G143C G152C | ≤ -4.2
U9A A29G A39C G42A U53A G80C G83A G92A G94C A121U | ≤ -4.2
U9A A20C G88U | ≤ -4.2
U9C A12C C57U C63U G74C A119G U146G | ≤ -4.2
U9A C85U G86U C87A G136C | ≤ -4.2
